Test results taken from the supplement of paper PMC3334620.
The full ranking holds about 33,000 sequences; the median of “E-score (-0.5 to 0.5)” is about -0.056, and the highest 2% start at about 0.38. This is one part of the list.

Target: Stb4 (UniProt P50104)
Assay: PBM E-score (8-mer binding enrichment) (E-score (-0.5 to 0.5)); higher = stronger / more preferred TF binding; most listed sequences are background and not binding sites
Conditions: protein concentration: 200 nM; construct: GST-DNA-binding domain
Procedure: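 Universal 'all 10-mer' protein binding microarrays (Agilent AMADID 015681) probed with GST-tagged S. cerevisiae TFs (full-length or DBD) made by in vitro transcription/translation (PURExpress), about 100-200 nM. Bound TF was detected with fluorescent anti-GST. Each ungapped 8-mer (which stands for itself and its reverse complement) is scored by the PBM enrichment score (E-score), a modified Wilcoxon-Mann-Whitney statistic from -0.5 to +0.5, computed with the Universal PBM Analysis Suite. Scale: above 0.35 generally sequence-specific binding.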

Sequence	PBM E-score
GTGGTGTA	-0.243
AATAAATA	0.183
GGTGAAAA	0.12
CGCAGAGA	-0.331
AGCTATTC	-0.0398
ACTTGGCT	-0.0855
CACCCGAG	0.448
GGCGCTCA	-0.0132
CTAACAGA	-0.114
GATCTCCC	0.117
ATGCAGTC	-0.253
ACAACAAT	-0.041
ACGGTTTC	0.0328
GCACATAC	0.0239
ACGTCTCA	-0.16
CACGTGAG	-0.164
CCGCAAAG	0.015
GCCCGATA	0.0754
CATGGATC	0.0289
AGTATGCC	0.0039
CTAGCTCA	-0.294
AGGAGCAA	-0.135
CTGGTCGA	-0.0446
GATAGTTA	0.0424
AATTCGAA	-0.191

Sequence	PBM E-score
ACGTCAGC	-0.0941
GCTATGAC	0.0527
AGCCAATC	0.0316
CCGTCACG	0.186
GAGTGGAA	-0.0792
AGGGCCAA	-0.242
CGTAGTAA	-0.109
ACAGACGA	-0.161
AATGCGAT	-0.127
AATCCAGG	-0.0803
TCCGAGCA	0.458
GAAGGCAA	-0.139
AAGATATG	-0.0486
ACCTAGCA	-0.0986
CCAAAGGC	-0.117
CCCGCCTA	0.161
GGATTAAC	0.0721
CGTCTAGC	-0.122
AATAAGAC	-0.141
AAGCCCGA	0.181
ATCGACCA	-0.13
CGAGAATC	0.109
ACACAATC	-0.12
TGATTGCA	-0.0923
ACCCGCAC	0.245

Sequence	PBM E-score
CAGGGATC	-0.0642
AGGACTCG	-0.112
GACAAATA	-0.0734
CAGACGGG	-0.00026
AAATCCCG	0.339
AGGATTGC	-0.0879
CGCCGCTC	0.133
ATGATATC	-0.075
CCCCACGC	-0.0539
ATGAGCCA	-0.103
ACACTTGG	-0.147
GGTGCCAA	-0.0442
ACTTCGAG	-0.0152
ATCGGCTC	0.279
AGAATTCC	0.221
AGACGTTA	-0.194
GACCTTGA	-0.303
AAACATCA	-0.127
AGGTAGGG	-0.283
TGTCAGAA	-0.224
ACGTTGAA	-0.0231
ATGCAACC	0.0516
GCTACAAA	-0.0318
CACTATTC	0.0249
AAGGATGA	-0.207

Sequence	PBM E-score
CATGCACG	-0.167
AAGTTCGG	0.421
AAGAGATG	-0.13
CTGGACCA	-0.0278
CTAACTTA	0.0614
GCACCTGC	-0.134
GAACCAGC	-0.015
ATAGTGTG	0.0766
CACGGATC	0.35
ACCTAAAT	0.12
GGGTCTAC	-0.00886
GGTCAGGA	-0.0388
CTGTTAGA	-0.16
CTTCCTAC	-0.232
GGATAGCA	0.242
TACCGACA	0.311
AAATGGTC	0.0442
AAAGCCAT	-0.0546
CGCATTCC	0.101
ATCTCAGC	0.0617
AACATCAG	-0.141
CACGGCAA	0.199
CACAGGGC	-0.272
CGTGCCCA	0.00213
TACGGAAA	0.322

Sequence	PBM E-score
ATCGCAGA	-0.337
ACTAAGCG	-0.0604
ACCCTAAC	-0.034
GTGAGTGA	-0.167
GACTACAC	-0.0519
AATGATAG	0.0475
ATCGTTTG	0.0206
GCCAAAGC	-0.121
GTTAATAA	0.0852
CTGTCGAC	-0.211
GCAAGACA	-0.0633
TGGCCCAA	-0.169
CCACGGCG	-0.0429
CCGGTGGA	0.225
AGTGATTG	-0.0135
ACGAGTGG	-0.122
ATTCTAGA	-0.113
ACGTCGTA	-0.164
ACGACACT	-0.149
AGCCCATC	-0.0127
ACAGTCGC	-0.315
GGGCAGCA	-0.17
CCGACCAA	0.248
AGGCTCGA	-0.126
CCACTCTC	0.0625

Sequence	PBM E-score
TAAAACCA	-0.2
ACGCGCTA	-0.0149
ATCTGCGC	-0.133
GCATGCAA	-0.123
CAGGCAAG	-0.255
CTTCAGTA	0.00858
CTGCAGCA	-0.169
CGCCGCCC	0.0841
AAGGTAGG	-0.0211
AACGGTCT	-0.192
AAACACTG	-0.0355
TGGTGAAA	-0.0565
CAGGTCAA	-0.193
GGACGCCC	0.14
CGATCATA	0.0494
GAGGAAAA	0.0135
CCAGGTCG	-0.247
TTAATGAA	-0.132
CTATCAAC	0.0348
GCTTCCCA	0.0205
AAAGCTTC	0.131
ATATCGAT	-0.0304
CTATGCTA	-0.202
ATGTTGAC	0.111
CAGGGGGA	-0.429

Sequence	PBM E-score
GAGTCTAC	-0.0685
CCTTGCGC	-0.163
CCTACACG	-0.216
CCAAAGGG	-0.157
ACAGCAGA	-0.197
GGACATCC	0.319
CAACTCTC	-0.0369
CCAATCCC	0.112
AAGTTAAC	0.0221
ACTATCTC	-0.0375
CGTATGTC	-0.0518
GTTTCTAA	0.049
CAGTGCAA	-0.156
GTTTACTA	-0.05
GGCGTTTA	0.0879
TACACCCA	-0.0256
CAAATTTG	0.137
ACCAGTCA	0.0783
ATAAATTA	0.0132
CACCATAC	0.0816
GTTGACGA	-0.0981
ATAATAGG	-0.0143
ATCATGTC	0.0861
ACTGTACT	-0.348
CAGAGGGG	-0.154

Sequence	PBM E-score
CTCTATTA	-0.18
AAGGCTAG	-0.127
ACCCTGTA	-0.129
CGTTGGCC	-0.00629
ATCGTTAA	0.0445
CTATTTTA	-0.133
CCTGGTAC	-0.249
AGTGGTCC	0.118
GTAATGTA	-0.14
CCAACAAG	-0.266
CGTTACAG	-0.198
AGGGTTCA	-0.219
GTTACACA	-0.234
ACATCTTA	-0.362
AATTTCAC	-0.0325
ACTCGTCT	-0.126
AAGCACTC	0.0131
GCGGAGCA	0.149
CGCATAGC	-0.0407
ACGAAGAT	-0.157
ACACTGTC	-0.0962
CCCACGAC	-0.111
TCGGGGAA	0.33
CCAACTCC	0.0984
AATTGAGC	-0.195

Sequence	PBM E-score
CGGGTTAG	0.148
AAGGTCAG	-0.247
AGTCCGCG	-0.00197
GAGTGAGC	-0.159
CGAGGGAA	-0.00481
CTATTGGC	-0.117
GGGAACAA	0.225
GATTAATA	-0.0505
GGGGAATA	-0.0405
TAAAACAA	-0.199
ATAACGAC	-0.152
CCAACGAC	-0.302
ACCAGACC	0.0485
GAGAATTA	0.103
AGAATCCA	-0.227
ACCTCCGG	0.327
CGACTCGC	-0.0581
GATTAGTA	-0.0413
AAGATATT	-0.00091
GTATGTTA	0.0426
GTACCGTA	0.0916
CAAACGTA	-0.0982
ACTGACCT	-0.2
CTCTATCA	-0.218
GATTGGGC	-0.0616

Sequence	PBM E-score
GGAAAACA	0.206
ATGTTTTG	-0.00578
CAGTACGG	0.11
AGGCTACC	-0.208
CGCTATAC	0.0197
GCGTCAGC	-0.172
GCTTGCCC	-0.294
GTCTCAGA	-0.238
CGATAAAC	-0.0461
GCGCGATA	-0.0647
AGGACAAA	-0.112
TGCAGAAA	-0.0408
CATCTATC	-0.064
AGTAGGTG	-0.0678
TCGGGACA	0.408
GACCCTGA	-0.205
AAACCGCA	-0.078
CCCGGTTC	0.206
CACGTTCA	-0.128
AAATTGCA	0.0349
GTCTACGA	-0.19
AGTTGTCC	0.0221
ATTGAGTC	-0.0275
CGGAACGA	0.399
GTCTAACA	-0.123

Sequence	PBM E-score
AGCTCCCC	-0.0767
ACATATGT	-0.11
ACAGCGGC	0.00559
CGATCTGA	0.0879
ACGGTGTC	0.0812
CTCTCCAG	-0.261
GACCGCTC	-0.0278
AAACCCGT	-0.00663
CCGGCTTA	0.305
GATTCAGA	-0.121
CCCTACAG	-0.208
ACGCTTCA	-0.307
ATCTTCAC	0.0599
AATCAGGC	-0.174
GTTAAAGA	-0.0182
CAGTAGCA	-0.11
GATTGAGC	-0.00802
ACCCTCCT	-0.0509
ATGGCGAG	-0.296
CAGCCGTA	-0.00843
ACGTACGA	-0.092
AGTATGGA	-0.0815
AGCCCGTG	-0.0636
CACGATGA	-0.14
GGGCCGGA	0.328

Sequence	PBM E-score
GGTGCAAA	0.00524
ACCAGACG	-0.203
ATACCAGA	-0.318
CACCCCCA	-0.163
CGAAAGGA	0.153
AAAGCACG	-0.129
GCATTCTA	-0.183
AAAGCGAG	0.0678
AAGACCTG	-0.146
GCGTGGGA	-0.156
CCAAACAC	-0.143
AACCGCTG	-0.173
AATACCAG	-0.161
ACGTGTCC	0.232
AGTTATCC	0.255
TGCGGGAA	0.344
CTAGCTGA	-0.184
AGTAAGAA	-0.147
AAGAGAAA	-0.206
GAAATTGA	0.134
GCTCAACC	-0.206
ACTGTGCG	-0.0381
ATTGTGTG	-0.17
ACCTCCGA	0.349
GCCCTCCA	-0.265

Sequence	PBM E-score
ATCTACCC	0.277
CCATTACG	-0.123
CACCCCCG	0.0697
CCCACACG	0.133
AGGTTTTG	-0.055
ACCGGTGA	0.0695
ACAACTCT	-0.155
ACAACTGA	-0.204
TGTCCTAA	-0.282
GAAGCTAC	-0.0288
AAATACCA	-0.208
AAAGCAAT	-0.128
AACACAAC	-0.0226
TACGTATA	-0.253
AAGGGACA	-0.312
GGCTTACA	0.0654
GGATGGCA	0.229
AGAGTATC	-0.0687
GGGGCGAA	-0.0471
CCGAAGCG	0.38
AAGGGAAA	-0.216
ACGAGGCC	-0.0545
ACTTCCAC	0.0233
GCTTTCAC	-0.148
ATGGTGTG	-0.239

Sequence	PBM E-score
AACGGGGG	-0.143
AGATCAAC	-0.177
AGGTACCA	-0.127
ATGTTGCG	-0.0733
CATACTAG	-0.0808
ATCTAAGC	-0.192
CCTGTATC	0.011
ATCCAACA	-0.029
GCCGAGTA	0.374
GGGATACC	0.184
ATAGTGTA	-0.172
CACAAGAA	0.0592
AAGCTTCT	-0.153
AGTTTTCA	0.0335
AGGATGGG	-0.0728
AAGCAAAC	-0.0582
ACGCGAGT	-0.00223
AGATATAG	-0.0259
AGGTCTAG	-0.202
